# About 120 (0.22%) of roughly 54,000 compounds were called active. This list was built around the results that the source calls inconclusive (neither active nor inactive); the mix of calls is not that of the screen. The call rests on the fitted dose curve; in most records, active means well fitted inhibition curve with a large enough effect; inconclusive means small, poorly fitted or top-dose-only effect, or effect the other way; inactive means flat fitted curve, though single readings scatter. Potencies of inconclusive entries are left out as doubtful fits.
# Molecular target: Fumarate hydratase, mitochondrial (Homo sapiens) (UniProt P07954)
# Sequence of UniProt P07954 (P07954 whole entry, looked up): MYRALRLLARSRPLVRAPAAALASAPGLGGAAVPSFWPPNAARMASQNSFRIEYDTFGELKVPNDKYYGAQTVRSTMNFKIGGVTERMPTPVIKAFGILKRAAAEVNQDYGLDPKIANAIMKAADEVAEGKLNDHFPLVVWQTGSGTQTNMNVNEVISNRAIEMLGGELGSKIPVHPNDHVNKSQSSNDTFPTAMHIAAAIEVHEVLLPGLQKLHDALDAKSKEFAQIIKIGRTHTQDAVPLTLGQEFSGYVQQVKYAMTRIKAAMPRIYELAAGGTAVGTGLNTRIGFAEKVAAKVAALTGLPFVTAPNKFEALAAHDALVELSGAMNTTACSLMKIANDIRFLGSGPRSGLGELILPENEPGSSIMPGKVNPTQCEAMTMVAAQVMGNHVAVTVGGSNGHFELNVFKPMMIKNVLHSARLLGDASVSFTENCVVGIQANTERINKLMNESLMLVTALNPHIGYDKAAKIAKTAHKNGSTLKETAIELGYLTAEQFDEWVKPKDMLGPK
# Assay: Identification of activators of human fumarate hydratase by quantitative high-throughput screening; further: the screen sought activators but most active calls are inhibition curves; nearly all actives have a fitted effect of over 45% in size
# Conditions: FH coupled MDH/diaphorase resazurin fluorescence, 15 min; activity change, negative = inhibition: at 79.9 µM (top of the series)
# On the % scale 0 is the no-effect control and ±100 the full control effect; potency means the concentration at half of the fitted maximal effect; tags describe the fitted curve by direction and shape.
SMILES,Potency,"activity change, negative = inhibition"
CCOc1ccc(C(=O)NCCc2csc(-c3cccc(C)c3)n2)cc1,"inconclusive [inhibitor, single point]",
Cc1ccc(C)c(N2CCN(CCCNC(=O)c3ccc4nc(N5CCC(C)CC5)sc4c3)CC2)c1,"inconclusive [inhibitor, partial curve, poor fit]",
O=S(=O)(c1ccccc1)n1nc(-c2ccc(Cl)cc2)nc1NCc1ccccc1,inactive,
CCOc1ccc(NC(=O)c2c(NCc3cc(OC)c(OC)cc3OC)sc3c2CCCC3)cc1,"inconclusive [inhibitor, single point]",
CCOc1ccc(CCNC(=O)c2ccc(CSCc3ccccc3C)o2)cc1OCC,"inconclusive [inhibitor, partial curve, poor fit]",
Clc1ccc(-c2cn3cc(Cc4ccccc4)sc3n2)cc1,inactive,
CCCN1CCCc2cc(CN(CCCN3CCOCC3)C(=O)Nc3ccc(Cl)c(Cl)c3)ccc21,"inconclusive [inhibitor, partial curve]",
CC1=CCC(C(C)(C)O[C@@H]2O[C@H](CO[C@@H]3O[C@@H](C)[C@H](O)[C@@H](O)[C@H]3O)[C@@H](O)[C@H](O)[C@H]2O)CC1 (stereo partly drawn),inactive,
COc1ccc2sc(N(Cc3cccnc3)C(=O)CCc3ccccc3)nc2c1,"inconclusive [inhibitor, partial curve, poor fit]",
Cc1cccc(N2CCN(C(=O)c3cnn(-c4ccccc4)c3C3CCN(C(=O)OC(C)(C)C)CC3)CC2)c1C,"inconclusive [inhibitor, partial curve, poor fit]",
COc1ccc(C2=NS(=O)(=O)N(C)C(C(=O)Nc3ccc(OC(F)(F)F)cc3)=C2)cc1,"inconclusive [inhibitor, single point]",
COc1ccccc1CNC(=O)CCCCn1c(=O)c2ccccc2n(Cc2ccccc2C)c1=O,inactive,
COc1ccc(Cl)cc1N=C1NC(=O)CC(C(=O)Nc2ccccc2C(F)(F)F)S1 (stereo not drawn),inactive,
CCNc1nc(NC(C)(C)C)nc(Oc2ccc(=O)n(-c3ccccc3)n2)n1,inactive,
O=C(CCSCc1ccco1)NNC(=O)N1Cc2ccccc2Oc2ccc(Cl)cc21,"inconclusive [inhibitor, partial curve, poor fit]",
CCc1ccccc1N1CC(c2nc3ccccc3n2CCOc2ccc(Cl)c(C)c2)CC1=O (stereo not drawn),"inconclusive [inhibitor, partial curve]",
COc1ccc(CCNc2oc(COc3cccc(C)c3)nc2C#N)cc1OC,"inconclusive [inhibitor, single point]",
CCCNC(=O)c1cnn2c(C(F)F)cc(-c3ccccc3)nc12,"inconclusive [inhibitor, single point]",
O=C1Nc2cc(Cl)ccc2Oc2ccccc21,inactive,
Cc1ccc(N2CCN(C(=O)c3c(C)oc4ncnc(N5CCCCC5)c34)CC2)c(C)c1,"inconclusive [inhibitor, single point]",

SMILES,Potency,"activity change, negative = inhibition"
CCOC(=O)c1c(C)oc2nc(C)nc(N(C)Cc3ccccc3)c12,"inconclusive [inhibitor, partial curve, poor fit]",
Cc1ccc2[nH]c(=O)c3cc(C(=O)NCc4cccc(Cl)c4)sc3c2c1,"inconclusive [inhibitor, single point]",
Cc1ccc(S(=O)(=O)N2CCCc3cc(NS(=O)(=O)c4ccccc4)ccc32)cc1,"inconclusive [inhibitor, single point]",
COc1ccc(Nc2ccc3cc(S(=O)(=O)N4CCCC4)ccc3n2)cc1OC,"inconclusive [inhibitor, partial curve, poor fit]",
COc1cccc(-c2ccc3c(N)c(C(=O)c4ccc(F)cc4)sc3n2)c1,inactive,
CC(C)c1ccc(NC(=O)c2cccn2-c2nnc(N3CCCCC3)s2)cc1,"inconclusive [inhibitor, partial curve, poor fit]",
CC[C@H]1OC(=O)[C@H](C)[C@@H](O[C@H]2C[C@@](C)(OC)[C@@H](O)[C@H](C)O2)[C@H](C)[C@@H](O[C@@H]2O[C@H](C)C[C@H](N(C)C)[C@H]2O)[C@](C)(O)C[C@@H](C)/C(=N/OCOCCOC)[C@H](C)[C@@H](O)[C@]1(C)O,inactive,
COc1ccc(Cn2c(SCc3ccc(C(=O)NCc4ccccc4F)cc3)nc3cccnc32)cc1,"inconclusive [inhibitor, single point]",
CCCCCCCCCCC(C)(C)C(=O)Nc1c(OC)cc(OC)cc1OC,"inconclusive [inhibitor, single point]",
COc1ccc(NC(=O)Nc2nnc(N(C)C3CCCCC3)s2)c(OC)c1,"inconclusive [inhibitor, single point]",
CN1CCc2cccc3c2C1Cc1ccc(O)c(O)c1-3 (stereo not drawn),active: 14.1 µM,
CC(C)OCCCN1C(=O)c2[nH]nc(-c3ccccc3O)c2C1c1ccc(OCc2ccccc2)cc1 (stereo not drawn),"inconclusive [inhibitor, single point]",
CCOc1ccccc1NC(=O)C(C)Sc1nc2c(c(=O)[nH]1)CCCC2 (stereo not drawn),"inconclusive [inhibitor, partial curve]",
CCN(CC)c1cc2c(cc1F)c(=O)c(S(=O)(=O)c1ccccc1)cn2Cc1ccccc1,"inconclusive [inhibitor, single point]",
CCc1ccc(CN2CCc3nc(Nc4ccc5c(c4)OCCO5)ncc3C2)cc1,"inconclusive [inhibitor, single point]",
COc1ccc(CCNc2oc(COc3ccc(Cl)cc3)nc2C#N)cc1OC,"inconclusive [inhibitor, single point]",
COc1ccc(Nc2nnc(-c3ccc(C)c(S(N)(=O)=O)c3)c3ccccc23)cc1,"inconclusive [inhibitor, single point]",
COc1ccc(NC(=O)CSC2=Nc3ccccc3C3=NC(CCC(=O)NCc4ccco4)C(=O)N23)cc1 (stereo not drawn),,inconclusive: -32% [inhibitor]
O=C(N/N=C/c1ccccc1O)c1ccncc1,inactive,
COc1ccc2cc(CNc3ccc(OC)c(OC)c3)c(=O)n(CC(=O)Nc3ccc(C)cc3)c2c1,"inconclusive [inhibitor, partial curve]",

SMILES,Potency,"activity change, negative = inhibition"
CCOc1ccccc1NC(=O)CSc1cc(=O)n(CC)c2ccccc12,"inconclusive [inhibitor, single point]",
Cn1c(=O)c2[nH]c(-c3ccc(S(=O)(=O)O)cc3)nc2n(C)c1=O,"inconclusive [inhibitor, partial curve]",
CCOC(=O)c1c(C)oc2c(Cl)cc(NS(=O)(=O)c3ccc(Cl)c(C)c3)cc12,"inconclusive [inhibitor, partial curve, poor fit]",
C=C1CCCC2(C)CC3(OC)OC(=O)C(C)=C3CC12 (stereo not drawn),inactive,
COc1cccc(NC(=O)N(Cc2cn(C)c3ccccc23)C2CCCCCC2)c1,"inconclusive [inhibitor, single point]",
COc1cc(CNc2ccc3[nH]c(=O)[nH]c3c2)cc(Br)c1OCc1ccccc1F,"inconclusive [inhibitor, single point]",
Cc1c(Cl)cccc1-n1nc(C)c2c(C)cc(=O)n(CC(=O)N3CCCc4ccccc43)c21,"inconclusive [inhibitor, single point]",
Cc1ccccc1N1CC(c2nc3ccccc3n2Cc2ccc(Br)cc2)CC1=O (stereo not drawn),"inconclusive [inhibitor, single point]",
Nc1ncnc2nc(-c3ccc(N4CCOCC4)nc3)cc(-c3cccc(Br)c3)c12,inactive,
CC(C)c1ccc(CN(Cc2ccco2)c2cnc(S(C)(=O)=O)nc2C(=O)Nc2ccccc2)cc1,"inconclusive [inhibitor, partial curve]",
Cc1ccc(S(=O)(=O)N2CCCc3cc(NS(=O)(=O)c4ccc(C)c(C)c4)ccc32)cc1,inactive,
COc1ccc(Nc2nc(Nc3ccc(OC)cc3OC)nc(N3CCOCC3)n2)c(OC)c1,"inconclusive [inhibitor, single point]",
COc1cc(NC(=O)c2ccc(-c3ccc(Cl)cc3)o2)cc(OC)c1,inactive,
COc1ccc(S(=O)(=O)NCC(c2ccco2)N2CCN(c3ccc(F)cc3)CC2)cc1 (stereo not drawn),"inconclusive [inhibitor, partial curve, poor fit]",
CC(=O)O[C@@H]1[C@H](O[C@@H]2OC[C@](O)(CO)[C@H]2O)[C@@H](O[C@@H]2O[C@@H](C)[C@H](O)[C@@H](O[C@@H]3O[C@H](CO)[C@@H](O)[C@H](O)[C@H]3O)[C@H]2O)[C@H](OC(=O)[C@]23CCC(C)(C)C[C@H]2C2=CCC4[C@@]5(C)C[C@H](O)[C@H](O[C@@H]6O[C@H](C(=O)O)[C@@H](O)[C@H](O)[C@H]6O)[C@@](C)(C(=O)O)C5CC[C@@]4(C)[C@]2(C)CC3)O[C@@H]1C (stereo partly drawn),,inactive: -6.43% [at 13.5 µM]
COc1ccc(OC)c(CNC(=O)c2ccc(NC(=O)c3nsc4ccccc34)cc2)c1,"inconclusive [inhibitor, full curve, poor fit]",
Cc1cccc(Cn2c(SCc3ccc(C(=O)NC4CCCC4)cc3)nc3cccnc32)c1,"inconclusive [inhibitor, single point]",
COc1cc(Cl)c(C)cc1NC(=O)CCc1nc2cccnc2n1Cc1cccs1,"inconclusive [inhibitor, partial curve]",

# — PubChem BioAssay AID1347055 (National Center for Advancing Translational Sciences (NCATS), 2019)
